Experimental data from the antibiotic and cytotoxicity screens of Wong et al. (2023).
This is one part of the list.

tested on: HepG2; test: cytotoxicity call (relative viability < 0.9); conditions: 10 µM

Compound | cytotoxicity call
C[C@H](CO)N1C[C@H](C)[C@@H](CN(C)C(=O)Nc2ccc3c(c2)OCO3)OCCCC[C@H](C)Oc2ccc(NS(=O)(=O)c3ccc(Cl)cc3)cc2C1=O | inactive
Cc1noc(C)c1NC(=O)Nc1ccc2c(c1)C(=O)N([C@@H](C)CO)C[C@H](C)[C@@H](CN(C)Cc1ccccc1)OCCCC[C@@H](C)O2 | inactive
NNC(=O)Oc1ccccc1 | inactive
C[C@H](O)C#Cc1cnc2c(c1)C(=O)N([C@@H](C)CO)C[C@H](C)[C@@H](CN(C)Cc1cncnc1)O2 | inactive
C[C@@H]1CN([C@@H](C)CO)C(=O)c2cccc(NC(=O)C3CC3)c2O[C@@H]1CN(C)Cc1ccc2c(c1)OCO2 | inactive
COc1ccc(NC(=O)N(C)C[C@@H]2OCCCC[C@@H](C)Oc3ccc(NC(=O)NC(C)C)cc3C(=O)N([C@H](C)CO)C[C@@H]2C)cc1 | inactive
C[C@H](CO)N1C[C@H](C)[C@H](CN(C)C(=O)Nc2ccc(F)cc2)Oc2c(NC(=O)CCCCCC(=O)Nc3ccccc3N)cccc2C1=O | inactive
Cc1ccc(S(=O)(=O)Nc2ccc3c(c2)C(=O)N([C@@H](C)CO)C[C@@H](C)[C@H](CN(C)C(=O)Nc2ccccc2)OCCCC[C@@H](C)O3)cc1 | inactive
CC(=O)N1CCO[C@H]2CCN(C(=O)c3cn(C)cn3)C[C@H]21 | inactive
C[C@@H]1CN([C@@H](C)CO)S(=O)(=O)c2ccc(C#CCN(C)C)cc2O[C@H]1CN(C)Cc1ccccn1 | inactive
C[C@@H]1CCCCO[C@@H](CN(C)S(=O)(=O)c2cn(C)cn2)[C@@H](C)CN([C@H](C)CO)C(=O)c2cc(NC(=O)Nc3ccc(C(F)(F)F)cc3)ccc2O1 | inactive
